Laboratory results reported in PubChem BioAssay (NCI).
Several values for one entry are separate records, joined by “and”; a condition that tells them apart may be missing. Equal entries are not always repeated.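 48-hour exposure; five concentrations; linearly interpolated endpoints. GI50 is the concentration that inhibits growth by half. TGI is the concentration that stops growth completely.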

Tested on: NCI-H322M lung
Test: NCI tumour cell line growth inhibition, 48 h

O=C1O/C(=C(/Cl)c2c3ccccc3cc3ccccc23)c2ccccc21
TGI: > 100 µM

COc1cccc2c1C(=O)c1c(O)c3c(c(O)c1C2=O)C[C@@](O)(C(C)=O)C[C@@H]3OC1CC(O)C(O)C(C)O1 (some centres undefined)
TGI: 49.8 µM

O=C1Nc2ccc(CN3CCOC3=O)cc2/C1=C/c1cc(CN2CCOCC2)c[nH]1
GI50: 95.7 µM | TGI: > 100 µM

CN(C)CCC(=O)N1CCc2c([nH]c3ccccc23)C1c1cccnc1 (centres undefined)
TGI: > 100 µM

CC(C)c1ccc(/C=N/N=C(N)N)cc1
GI50: 13.1 µM | TGI: 28.2 µM

CCCC(=O)O[C@]1(C)CC[C@@H]2[C@H]3[C@@H]1[C@@H]1C/C(C)=C\CC[C@](C)(OC(=O)[C@@H]2C)[C@H]3O1
GI50: > 100 µM | TGI: > 100 µM

CC(=O)[O][Hg][CH2]C1(C)COC(C)([CH2][Hg][O]C(C)=O)CO1 (centres undefined)
GI50: > 43.4 µM | TGI: > 58.5 µM

CC(C(=O)O)C1Nc2ccccc2NC1=O (centres undefined)
TGI: > 100 µM

Nc1ccc(S(=O)(=O)NCCS(=O)(=O)O)cc1
TGI: > 100 µM

CNC12C3C4C1C1C2C3C41C(=O)N[C@H](C(=O)N(C)[C@H](C[C@@H](OC(C)=O)c1nc(C(=O)N[C@@H](Cc2ccccc2)C[C@H](C)C(=O)OC)cs1)C(C)C)C1CC1 (some centres undefined)
GI50: 0.768 µM | TGI: > 15 µM

CCOc1ccc2c(c1)C(=O)c1c-2n(CCCN)c(=O)c2cc([N+](=O)[O-])ccc12
GI50: 0.547 µM | TGI: 1.94 µM

O=C(Nc1nc(-c2ccccc2)cs1)c1cc(O)c(O)c(O)c1
GI50: 7.79 µM | TGI: 78.1 µM

Cc1ccc(S(=O)(=O)NC(=O)NCC(N)=O)cc1
TGI: > 100 µM

OCc1ncc(-c2ccccc2)s1
GI50: > 100 µM | TGI: > 100 µM

C[C@@H]1CC[C@@H]2[C@@H]1[C@H](OC(=O)c1ccc3ccccc3c1)[C@]1(C3CCCCC3)C[C@@H](OC(=O)CO)[C@@]2(C)O1
GI50: 15.2 µM | TGI: 29 µM

COC(=O)C1Cc2c([nH]c3ccccc23)-c2[nH]c3ccccc3c2CC(NC(C)=O)C(=O)NCC(=O)NCC(=O)N1 (centres undefined)
TGI: > 100 µM

CC1(Cc2cc3c(cc2C2(c4ccc([N+](=O)[O-])cc4)OCCO2)OCO3)OCCO1
TGI: > 100 µM

Nc1cc(N)cc(Cc2ccccc2)c1
TGI: > 100 µM

C[N+]1(C)C/C(=C\c2ccc(O)cc2)C(=O)/C(=C/c2ccc(O)cc2)C1
TGI: > 100 µM

COc1ccc(C(c2cc(OC)c(OC)c(OC)c2)N2C(=O)CCC2C(=O)O)cc1 (centres undefined)
TGI: > 100 µM

CC(=O)Oc1cc(/C=C/c2ccc(O)cc2)cc(OC(C)=O)c1
TGI: > 100 µM

CC1(C)CC2C(/C1=N/O)C1(C)CCCC2(C)C1O (centres undefined)
TGI: > 100 µM

C=C[Si](C)(C)COC(=O)/C(C#N)=C/C=C/c1ccccc1
TGI: > 100 µM

COc1ccccc1Nc1nc2ccccc2c2occc12
GI50: 11.4 µM | TGI: 34.1 µM

C=CC[C@@]12CCC(=O)C=C1CCCC2=O
TGI: > 100 µM

CC(=O)c1c2c(cc3c1CC1(C3)Cc3cc4c(c(C(C)=O)c3C1)CCCC4)CCCC2
TGI: > 100 µM

Cc1ccc(NC(=O)N2CCCCC2)cc1[N+](=O)[O-]
GI50: > 100 µM | TGI: > 100 µM

C=CCN1C(=O)/C(=C/c2ccc(OC)cc2)N=C1SC1OC(COC(C)=O)C(OC(C)=O)C(OC(C)=O)C1OC(C)=O (centres undefined)
GI50: 16.3 µM and 44 µM | TGI: 30 µM and > 100 µM

O=C1COc2cc3c(cc2N1)SCCC(=O)N3
TGI: > 100 µM

c1ccc2c(-c3cnn4cc(-c5ccc(N6CCNCC6)cc5)cnc34)ccnc2c1
GI50: 1.16 µM | TGI: 2.54 µM

Cc1[nH]c(=O)nc(N/N=C/c2ccc(Cl)cc2)c1C(=O)Nc1ccc(Cl)cc1
TGI: > 100 µM

Cc1cc(Cl)cc2c1NC(=O)C2(O)CC(=O)c1ccc(F)cc1 (centres undefined)
TGI: > 100 µM

CC(C)(C)CN1[C@@H]2CCCC[C@H]2N(CC(C)(C)C)P1(=O)C(O)/C=C/c1ccccc1 (some centres undefined)
TGI: > 100 µM

COc1ccc2oc(=O)c(-c3csc(-c4ccccc4)n3)cc2c1
TGI: > 100 µM

COc1ccc(C2N3CCCCC3[C@@H]3c4[nH]c5ccccc5c4CCN23)c(OC)c1 (some centres undefined)
TGI: > 100 µM

O=C([CH-]C(=O)c1ccccc1)c1ccccc1.[CH3-].[CH3-].[CH3-].[Sn+4]
GI50: 16 µM | TGI: 71.8 µM

C/C(=C(/C)c1cc[n+](C)cc1)c1cc[n+](C)cc1
TGI: > 75 µM

COc1ccc2cc(/C=N\NC(=O)Nc3ccc([N+](=O)[O-])cc3)ccc2c1
TGI: 24.8 µM

CCOC(=O)CNC(=O)CNC(=O)CNC(=O)CNNc1c(OCc2ccccc2)c(=O)c1=O
TGI: > 100 µM

CC(=O)N1N=C(c2ccc(Nc3nc(Nc4ccc(F)cc4)nc(Nc4ccc(Cl)cc4)n3)cc2)CC1c1ccc(N(C)C)cc1 (centres undefined)
GI50: 16.2 µM | TGI: 58.5 µM

C=C(C[C@@H](O)[C@H](C)NC(=O)OCc1ccccc1)C(=O)OC(C)(C)C
TGI: > 100 µM

CCOC(=O)N1CCc2cc(OC)c(OC)cc2/C1=C/c1ccc(OC)c(OC)c1
TGI: > 100 µM

CSC(=NC#N)S/C=C/C(=O)c1cccc2ccccc12
GI50: 34.8 µM | TGI: > 100 µM
